We go through 67 sequences from the supplement of paper PMC10126150.

Values marked as one replicate rest on one cluster of the flow cell; about a third of the high ones do not repeat.
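Note: ATP exposure 15 min at 22 °C before imaging.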

The data set deals with ATP. Kind of data set: switch fluorescence ratio, 500 uM ATP over buffer (Cy3 cluster intensity, sum of 5 cycles each) (fold (ratio)); higher = stronger signal-on switching upon ATP binding; sequences stand for … in TCGTCGGCAGCGTCAGATGTGTATAAGAGACAGTTTTTTTTTTTTTTTTTTTTTTTTT…TC. The note with it: aptamer strand: ATP DNA aptamer (quencher-CACCTGGGGGAGTATTGCGGAGGAAGG + anchor), 100 nM annealed; ATP concentration: 500 uM; one replicate. The method in brief: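 Per cluster, summed Cy3 intensity from the target cycles was divided by that from the buffer cycles to give the fluorescence ratio, then averaged per switch-domain sequence. Clusters outside 100-1000 RFU were excluded. The Cy3-labelled switching-strand clusters, on a modified Illumina MiSeq flow-cell, were annealed to 100 nM quencher-labelled ATP aptamer and imaged in selection buffer, then after 15 min with 500 uM ATP at 22 °C, for five cycles with NaOH stripping and re-annealing between them.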
On to AAAGGAGTTC, for which the switch fluorescence ratio was 0.938. The result for GTCTAACGTG reads 0.983; that for CACCTATGAT, 1.34. Regarding TGGTTGTGTA, the switch fluorescence ratio stood at 1.06.

Turning to TAATGTGT, the switch fluorescence ratio came out at 0.994. For the sequence TAGTCCGTTC, the switch fluorescence ratio stood at 0.974. Take CGACGGATTG: the switch fluorescence ratio amounted to 0.985. For GCGACTTTAC the value was 1.79. Turning to CTAGCGGTGG, the switch fluorescence ratio stood at 1.02.

For the sequence AGCTACATCG, the switch fluorescence ratio came out at 1. Turning to CGATATATCG, the switch fluorescence ratio stood at 1.02. As to CTACAACACG, the switch fluorescence ratio stood at 1.2.

With AGTTTTATGG, the switch fluorescence ratio was found to be 0.968. Take ACGTGACGGA: the switch fluorescence ratio is 1.28. As for AGAGTAGAAA, the switch fluorescence ratio is 0.965.

Take AGGTCTAGGA: the switch fluorescence ratio came out at 1.09. TCACAGTTGT: the switch fluorescence ratio is 0.981.

Take GAGAAATAGG: the switch fluorescence ratio worked out at 1.04. Take GCGGGGCGCT: the switch fluorescence ratio is 1.06.

On to TGGTCAAGTC, for which the switch fluorescence ratio came out at 1.01. For CTTAACGAAG, the switch fluorescence ratio was found to be 0.998. The result for TGTACATTTC reads 1.05. Regarding AGGGTTCGTC, the switch fluorescence ratio came out at 1.04. The result for CTTTCTTAGT reads 1.04.

Take ATGATATTGG: the switch fluorescence ratio came to 0.975.

Consider CTCATCCTAC, for which the switch fluorescence ratio came to 1.23. With ATAAAAAGCC, the switch fluorescence ratio was 1. Turning to GCTTATTTGC, the switch fluorescence ratio is 1.03. The result for TTAGAGGAA reads 0.984; that for TACATCCCAC, 1.24. On to TCTAGCAGAT, for which the switch fluorescence ratio is 1.04. Take TTATAGAT: the switch fluorescence ratio turned out to be 1.01. On to TAGAAGTTGA, for which the switch fluorescence ratio turned out to be 1.03. For ATCATGGTTA, the switch fluorescence ratio turned out to be 1.03. On to GGACTAGTCC, for which the switch fluorescence ratio was determined as 1. For ACGTGGTTGG the value was 1.04; for CTAAATTAAG, 0.994.

GCGAGGACGC: the switch fluorescence ratio worked out at 1.09. As to GACTCCAGAT, the switch fluorescence ratio was found to be 1.22. With GAGTGCATCT, the switch fluorescence ratio was determined as 0.994. Regarding GGTGTACTGG, the switch fluorescence ratio came to 1.01. On to ACTCTACGGG, for which the switch fluorescence ratio was 1.37. With AGCAATTCTG, the switch fluorescence ratio stood at 1.13. Consider TTACAGAGCG, for which the switch fluorescence ratio was found to be 1.06. As for AAGGACGATT, the switch fluorescence ratio worked out at 1.01. For CGACTCGTGC, the switch fluorescence ratio turned out to be 1.29. For AAGAAAAATG, the switch fluorescence ratio was 1. As to GGTGATCAAG, the switch fluorescence ratio came to 1.04. As to GTATCAGAGA, the switch fluorescence ratio was 0.995. On to CCACAGGTCG, for which the switch fluorescence ratio turned out to be 2.1. As to ATCATTAAGC, the switch fluorescence ratio amounted to 0.983. For TGGGTAAGCG, the switch fluorescence ratio is 0.976. As for CCCGTTGGTA, the switch fluorescence ratio stood at 0.995.

For the sequence CGCAACGTCC, the switch fluorescence ratio came to 1.19.

On to TTGGACGAG, for which the switch fluorescence ratio was 0.942.

With ACTTACGGCT, the switch fluorescence ratio amounted to 1.22. For AAGCCCGTA the value was 0.942; for GCGGGCTATA, 1.01.

Take CTGAGAGGCG: the switch fluorescence ratio was 0.964. With ACTGAGGTA, the switch fluorescence ratio was determined as 1.06. The result for ACGTCATATG reads 1.12. AAACCCTTAC: the switch fluorescence ratio was found to be 2.93.

For GGTTCCAATG, the switch fluorescence ratio came out at 1.01. In the case of CAATCGGGCT, the switch fluorescence ratio stood at 1. For CCTTAATGAG, the switch fluorescence ratio came out at 1.01. CGAAAGTTGG: the switch fluorescence ratio came out at 0.964. As to CGGTTGCCGG, the switch fluorescence ratio stood at 1.02.
